This is one part of the list.
The sequences below were run on PfSIP2 AP2 domain 1 (GST-tagged) (assay: gcPBM binding intensity (ln(normalized median fluorescence intensity)); higher = stronger DNA binding).
Summary of the method: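 Alexa488 anti-GST antibody, scanned at 488 nm, detected GST-tagged P. falciparum DNA-binding domains that had been expressed in E. coli and incubated for 1 h on an Agilent 4 × 180k array. The array carried primer-extended double-stranded 36-bp intergenic genomic probes and negative controls. Binding intensity is the highest Masliner-normalised natural-log median intensity across replicate spots of either orientation of each probe.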

Sequence | gcPBM binding intensity (ln)
TATATTTGTACATGATATTTTTTTTTTCTTTTAAAA [CACACA_negctrl_site754] | 6.74
GGAAAATTATCAATAGCATGCAAAATGTGAATATTA [TGCATGCA_site901] | 6.83
TTTCCTCATTTTATCATACACACTTATTTATATGTG [CACACA_site900] | 6.91
GCCAAAATATAATTTACACACTTATTAAATAATTAT [CACACA_site236] | 7.03
AGAATAATACAAAAATGTACATTAATAAAAAGATAG [XGTACX_site780] | 7.21
ATTGAATATGGATATGTGCACATATGTATATAAGTA | 8.97
AAAACATTGTTGAACTGTTTTATTTATAAATATAAG [XGTACX_negctrl_site393] | 7.02
ATATATATACTGTGTACACACATATGTATTTATATA [CACACA_site4600] | 7.69
TAATAACTACAAAAAAAAAAGAAAAATAGAAAAAGG [CACACA_negctrl_site1102] | 6.82
TCGTGTTAAACTTTTACACACAAACTTGCAATAATT [CACACA_site7745] | 7.02
TGCTTTATTATTTATTGTACATGTAAAATGAGAGAG [XGTACX_site2288] | 7.58
TTTGTTTAAATTAAATGTACATAAAGAATAATATAT [XGTACX_site5093] | 7.42
AATTATATGAAATAAACACACATATGTAATATTACA [CACACA_site1928] | 6.76
TTTCTTAAAATGTTATGTACATATTTCGTTTCAAAG [XGTACX_site6102] | 7.28
TCTTTTTAATTTATATGTACTTATATTAATTATAAG [XGTACX_site7524] | 7.15
TGAGCTTCAACAATATGTACATAAAATATATTACAT [XGTACX_site4763] | 7.09
TTAATAAAAGCCCATGCACACCTTAGAAAGTTTTAT [CACACA_site8003] | 7.37
GTATTATAGTATAATACACACCCAAATATTAAAAAG [CACACA_site7404] | 7.04
CGTTATATATGTATTACATGCAATATATGTACGTAA [TGCATGCA_site274] | 6.8

Sequence | gcPBM binding intensity (ln)
TAAATAATATCCCTTTGTACGTATTTTTTTTTATTA [XGTACX_site7303] | 6.84
GAAATAAGTTAAAATAGTACGTAGTGTTCCTTAAGT [XGTACX_site6557] | 6.94
TTAGGAAAACAAAAATGTACGCATATATATTATTGA [XGTACX_site8288] | 6.98
TTAAAAATAATATATTGTACACATACTTATTTTAAT [XGTACX_site1348] | 7.2
GTGCATATACAAATATGTACTTAAACGTTTTTTTTT [XGTACX_site7362] | 8.99
TTTTTCTTTTGATGTTGTACATATATATCATATAAT [XGTACX_site1189] | 7.12
GTTTATTCATCATACGGTACACATAAATAATATATA [XGTACX_site6931] | 7.39
AAGACTTCTCCATATACACACACCAACAAATATAAA [CACACA_site2779] | 7.21
GATGAATAAATCAAAGCACACATACACCCACATATA [CACACA_site7986] | 7.19
TTCGTTTAAATCAAGTGTACATATTATATATAATAT [XGTACX_site7599] | 7.29
ATTTTTTTTTTTTTTTTTTGGTTTTCTTTAGGAGTT [CACACA_negctrl_site1258] | 6.9
GTATATATTTTTATTTAATAATTTGTTTATTTATTC [CACACA_negctrl_site647] | 6.95
CATACATATACATACAGTACATATTTTTTGTCAATT [XGTACX_site7357] | 7.22
AACGAAAACACTACGTGTACCAAACGTCCTACTAAC [XGTACX_site4915] | 6.9
TTATATGGCTCCATTTGTACGCATCCATGTTTTTAT [XGTACX_site6590] | 6.99
AAAAAAAAAAAAAAAGCACACATCATATTATAATTC [CACACA_site3355] | 7.54
AAAAAAACATAACAAAATGAAACAAAACAAAAAGAA [GTGCAC_negctrl_site577] | 7.28
AGTTATTAAAAATGTGCATGCAATGGTTTCTCTTAA [TGCATGCA_site634] | 7.52
ATTTATAATGATTTTTTTAGTAATCTTGTTATTTTT [XGTACX_negctrl_site373] | 6.68

Sequence | gcPBM binding intensity (ln)
AGGAGGTCAGTTCACAGTACCCAGAAACTCTACGAG [XGTACX_site2006] | 6.65
TCTTTTTTTTCTTTTTTTTTATTTAAATATCAAGTA [CACACA_negctrl_site1354] | 6.73
GTATGTATATATATATGTACATACTGTTTATCGTTA [XGTACX_site6168] | 6.94
TTTTAATAAATATACACACACAAAAAAAAAAAAAAA [CACACA_site3971] | 7.15
TTTCACTTTTTCCAAAGTACATATATAAAAATTAAT [XGTACX_site6947] | 7.05
ATATAAAAAAAAAAAAGTACACATAAACAAATGCAT [XGTACX_site4241] | 7.03
AGATTATAAAATTCTACACACATATATACATATATA [CACACA_site3485] | 6.86
GACCAATTCAAATATGCACACAAATTTGAAAACGAT [CACACA_site9202] | 7.58
AATATATAGAAACACACACACAAAAAAAAAAAAAAA [CACACA_site1326] | 6.92
AATAAAAAGACATTCACACATATATATTATTTATAT [CACACA_site5936] | 7.12
TTAAAATATAATATTCGTACTTATTCAAAAGAAAAA [XGTACX_site2122] | 6.75
ATATGTAGAAGTAATGCACACATATGTATATATATA [CACACA_site8796] | 8.38
ATAATGTAAAAGTAAACACACACATATATATATACA [CACACA_site8793] | 7.06
GTCTTAAAAATTAAAACACACGTTCACTTTCATATT [CACACA_site5803] | 7.39
TATATATATATATAATGTACATATATATAATATACA [XGTACX_site1552] | 9.25
ATTTCTACTAAAAATACACACGATGATACAACGAAG [CACACA_site1755] | 6.95
AATTAATAACAAAATAAACACACATATATAAATACA [CACACA_site8456] | 6.96
TATATTTAGATATATACACACATTAGCATTTTCATA [CACACA_site6902] | 6.83
